# Experimental data: PubChem BioAssay AID1345082 (National Center for Advancing Translational Sciences (NCATS), 2018)
# The campaign covered roughly 94,000 compounds. About 4,000 (4.3%) were called active. The shares of active, inactive and inconclusive entries below differ from those in the screen. Calls come from the whole dose curve; as a rule, active = well fitted inhibition curve with a large enough effect; inconclusive = small, poorly fitted or top-dose-only effect; inactive = no such curve, though single readings can be large or run the other way. Potencies beside an inconclusive call are fits to weak or partial responses and may not hold up.
# Test: Cytotoxic Profiling in NIH 3T3 Cell Line of Diverse Libraries Using Quantitative High-Throughput Screening; note: nearly all actives have a fitted effect of over 55% in size
# Details: NIH 3T3 viability, CellTiter-Glo ATP luminescence, 48-72 h; series mostly up to 96.7 µM
# Method in brief: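 Luminescent ATP readout (CellTiter-Glo, 10 min RT) after 48 or 72 hr compound exposure of NIH 3T3 cells seeded at 400 cells/well in 1536-well format; quantitative HTS.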
# Potency is the fitted concentration of half-maximal effect; tags give direction and shape of the fitted curve.
row,SMILES,Potency
1,COc1ccc(CC(=O)N2CCCN(c3ccc4nnc(-c5ccccc5)n4n3)CC2)cc1,"inconclusive: 50.1 µM [inhibitor, partial curve, poor fit]"
2,CCN1CCN(C(=O)c2cn3cc(-c4cccc(OC)c4)sc3n2)CC1,"inconclusive: 70.8 µM [inhibitor, partial curve, poor fit]"
3,CCc1ccc(NC(=O)Cn2c(-c3cccc(Cl)c3)nc(C)c(CCO)c2=O)cc1,"inconclusive: 31.6 µM [inhibitor, full curve]"
4,CCc1cc(=O)n(CC(=O)NCCc2ccc(Cl)cc2)c(N2CCOCC2)n1,"inconclusive: 50.1 µM [inhibitor, partial curve, poor fit]"
5,O=C1Nc2ccc(/C=C/c3ccccc3)cc2C(=O)N2CC[C@H](NS(=O)(=O)c3cccs3)[C@@H]12,"inconclusive: 56.2 µM [inhibitor, partial curve, poor fit]"
6,O=C(C1CCCC1)N1CC2(CCN(Cc3ccccn3)CC2)Cc2ccccc21,"inconclusive: 100 µM [inhibitor, partial curve, poor fit]"
7,CCOC(=O)[C@@H]1CN(C(=O)CC(C)C)[C@H]2c3cccc(C)c3O[C@@H]12,"inconclusive: 50.1 µM [inhibitor, partial curve, poor fit]"
8,O=C(N1CCC(c2noc(C3CC3)n2)C1)C1(c2ccccc2)CC1 (stereo not given),inactive
9,COc1ccc(CCNC(=O)C2CCN(c3nccc(Nc4ccc(C)cc4)n3)CC2)cc1,"inconclusive: 44.7 µM [inhibitor, partial curve, poor fit]"
10,C[S+](=O)([O-])c1ccc(-c2cc(C(=O)NCc3ccccc3)nn3cccc23)cc1,"inconclusive: 12.6 µM [inhibitor, full curve, poor fit]"
11,O=C(Nc1ccccc1)N1CCCN(CCn2nc3n(c2=O)CCCC3)CC1,inactive
12,COCCN1C(=O)c2ccccc2C(C(=O)Nc2cccc(C)n2)C12CCCCC2 (stereo not given),"inconclusive: 15.8 µM [inhibitor, full curve, poor fit]"
13,COc1ccccc1C(=O)N1CCC(n2c(=O)[nH]c3ccccc32)CC1,inactive
14,CCOc1cccc(CNC(=O)c2noc(-c3ccc(F)cc3)n2)c1,"inconclusive: 50.1 µM [inhibitor, partial curve, poor fit]"
15,Cc1nn2c(c1-c1ccccc1N1CCCC1)N(C(=O)c1cc3ccccc3n1C)CCC2,active: 35.5 µM
16,O=C(C1CCOCC1)N1CCC(c2noc(COc3ccc(F)cc3)n2)C1 (stereo not given),inactive
17,CCO[C@H]1CN(C(=O)c2cc(-c3ccc(OC)cc3)n[nH]2)C[C@@H]1O,inactive
18,O=C(C1CCCCC1)N1CC[C@H](c2nc3ccccc3s2)C1,"inconclusive: 70.8 µM [inhibitor, partial curve, poor fit]"
19,O=C(Nc1ccc(Cl)cc1)c1cc2n(n1)CC(c1ccc3c(c1)OCO3)OC2 (stereo not given),"inconclusive: 44.7 µM [inhibitor, partial curve, poor fit]"
20,C#CCNC(=O)[C@@H]1Cc2cn(Cc3nccn3C)c3cccc(c23)[C@H](CC(C)C)N1,"inconclusive: 100 µM [inhibitor, partial curve, poor fit]"

row,SMILES,Potency
1,COc1ccc(CNC(=O)N2CCc3c(nc(-c4ccc(OC)cc4)[nH]c3=O)C2)cc1,inactive
2,O=C(NC1CCCCC1)C1CN(S(=O)(=O)c2cc(F)cc(F)c2)CC12CCOCC2 (stereo not given),inactive
3,NC(=O)c1cccc(CN2CCC3(Cc4ccccc4N(C(=O)c4ccc(Cl)cc4)C3)C2)c1 (stereo not given),"inconclusive: 56.2 µM [inhibitor, partial curve, poor fit]"
4,COc1ccccc1/C=C/CN1CCCC(CNC(=O)COc2ccccc2OC)C1 (stereo not given),"inconclusive: 39.8 µM [inhibitor, partial curve]"
5,COc1ccccc1-c1nc(C(=O)NCc2ccc3c(c2)OCO3)n2ccccc12,"inconclusive: 31.6 µM [inhibitor, full curve, poor fit]"
6,COCc1ccc2c(c1)c(OC(C)(C)C(=O)NCC(C)C)nn2Cc1cccnc1,"inconclusive: 50.1 µM [inhibitor, partial curve]"
7,O=S(=O)(c1ccc(F)cc1)N1CCc2nnc(C3CC3)n2CC1,inactive
8,CCOCC1(C)COc2ccc(C(=O)Nc3ccc(OC)nc3)cc2N1 (stereo not given),"inconclusive: 112 µM [inhibitor, single point]"
9,COc1ccc(OCc2nc(C)c(CCO)c(=O)n2CC(=O)NCc2cccs2)cc1,inactive
10,Cc1oc(-c2ccc(C(F)(F)F)cc2)nc1CN(C)C(C)c1cccs1 (stereo not given),"inconclusive: 20 µM [inhibitor, partial curve, poor fit]"
11,COc1cc(F)ccc1-c1nccc2c(=O)cc(-c3cnn(C)c3)oc12,"inconclusive: 22.4 µM [inhibitor, full curve, poor fit]"
12,OCc1cc(CC2(NCc3ccc(CO)o3)COC2)no1,inactive
13,COc1ccc(C(=O)N2CCCCC2c2nc(CCOCC3CCOCC3)no2)cc1F (stereo not given),"inconclusive: 50.1 µM [inhibitor, partial curve, poor fit]"
14,Cc1noc(-c2ccc(OC3CN(C(=O)c4sccc4C)C3)cc2)n1,"inconclusive: 50.1 µM [inhibitor, partial curve]"
15,CC(C)C[C@@H]1N[C@H](C(=O)NCC2CC2)Cc2cn(Cc3ccncc3)c3cccc1c23,"inconclusive: 56.2 µM [inhibitor, partial curve, poor fit]"
16,O=C(O)COc1ccc(-c2nccc3c2C(=O)N(Cc2cccc(C(F)(F)F)c2)CC(COc2cccc(F)c2)O3)cc1 (stereo not given),"inconclusive: 70.8 µM [inhibitor, single point]"
17,COCCn1c(=O)c(C(=O)NCc2cccc(F)c2)nc2cccnc21,inactive
18,CN(C)CCOCC1(C)COc2ccc(C(=O)Nc3cccc(Cl)c3)cc2N1 (stereo not given),active: 44.7 µM
19,CC(C)C(=O)N1CCC2(CC1)OC(=O)N(Cc1ccccc1F)C2(C)c1ccccc1 (stereo not given),active: 44.7 µM
20,O=[S+]([O-])(NC1CCN(c2ccnc3ccnn23)CC1)c1cccc(C(F)(F)F)c1,"inconclusive: 39.8 µM [inhibitor, partial curve]"
